The results in this text go back to the supplement of paper PMC9446081.

Out of some 39,000 compounds screened, about 220 (0.56%) showed activity. This is one part of the list.
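Further: static incubation at 37 °C against the wild-type strain, values averaged over two biological replicates.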

The assay deals with Escherichia coli K-12 BW25113. Briefly: relative growth (OD600 normalised to plate interquartile mean) (fraction); higher = less growth inhibition, active = 0.2 or less. Particulars: 50 µM; LB; incubation time: overnight (16-24 h).
In the case of `CO[C@@H]1CN(C)C(=O)c2ccc(NS(=O)(=O)c3ccccc3)cc2OC[C@@H](C)N(C(=O)NC(C)C)C[C@@H]1C`, the relative growth was inactive: 0.977.

`C[C@H](CO)N1C[C@H](C)[C@H](CN(C)C(=O)Nc2cccc3ccccc23)OCCCC[C@H](C)Oc2ccc(N(C)C)cc2C1=O`: the relative growth was inactive: 1.

Take `C[C@@H]1CN([C@@H](C)CO)C(=O)CCCn2nncc2CO[C@@H]1CN(C)C(=O)Nc1ccc(N2CCCCC2)cc1`: the relative growth is inactive: 1.

With `C[C@H](CO)N1C[C@H](C)[C@@H](CN(C)C(=O)Cc2ccncc2)Oc2cc(C#CC3CC3)ccc2S1(=O)=O`, the relative growth was inactive: 1.01.

As for `C[C@H](CO)N1C[C@H](C)[C@H](CN(C)S(=O)(=O)c2cn(C)cn2)OCc2ccccc2-c2ccccc2C1=O`, the relative growth is inactive: 0.996.

For `C[C@@H]1CN([C@H](C)CO)C(=O)CCCn2nncc2CO[C@H]1CN(C)C(=O)Nc1ccc(N2CCCCC2)cc1`, the relative growth was inactive: 0.955.

Turning to `N[C@@H]1CC[C@H](CCn2cc(-c3ccccn3)nn2)O[C@H]1CO`, the relative growth is inactive: 0.924.

For the compound `C[C@H](CO)N1C[C@H](C)[C@@H](CN(C)Cc2ccc(Cl)c(Cl)c2)OCCCC[C@H](C)Oc2ccc(NS(=O)(=O)c3cn(C)cn3)cc2C1=O`, the relative growth is inactive: 0.867.

`COc1ccc(CCNC(=O)[C@@H]2c3ccccc3C(=O)N(Cc3ccccc3OC)[C@H]2c2ccc(CO)cc2)cc1`: the relative growth was inactive: 0.937.

Take `C[C@H]1CN([C@@H](C)CO)C(=O)Cc2cc(NS(=O)(=O)c3cccs3)ccc2O[C@H]1CN(C)S(=O)(=O)c1cn(C)cn1`: the relative growth was inactive: 1.01.

As for `C[C@@H]1CN([C@@H](C)CO)C(=O)c2cc(NS(=O)(=O)c3cccs3)ccc2O[C@@H]1CN(C)CC1CC1`, the relative growth is inactive: 0.979.

Regarding `C[C@@H]1CN([C@@H](C)CO)C(=O)c2cc(/C=C/c3ccccc3)cnc2O[C@@H]1CN(C)C(=O)c1cnccn1`, the relative growth was inactive: 1.01.

`C[C@@H]1CN([C@@H](C)CO)C(=O)c2cc(C#Cc3ccc(F)cc3)cnc2O[C@@H]1CN(C)CC1CCOCC1`: the relative growth was inactive: 0.993.

Consider `Cc1ccc(S(=O)(=O)N(C)C[C@@H]2Oc3cc(C#Cc4ccccc4)ccc3S(=O)(=O)N([C@@H](C)CO)C[C@@H]2C)cc1`, for which the relative growth is inactive: 1.05.

Regarding `C[C@@H]1CCCCO[C@@H](CN(C)Cc2ccc(Cl)c(Cl)c2)[C@H](C)CN([C@@H](C)CO)C(=O)c2cc(NS(=O)(=O)c3ccc(Cl)cc3)ccc2O1`, the relative growth is inactive: 1.02.

As to `Cc1ccc(S(=O)(=O)N(C)C[C@H]2OCCCC[C@H](C)Oc3ccc(NC(=O)NC4CCCCC4)cc3C(=O)N([C@@H](C)CO)C[C@@H]2C)cc1`, the relative growth was inactive: 0.992.

With `CN1CCCN(C[C@@]2(O)CCNC2)CC1`, the relative growth was inactive: 1.03.

As for `CC(C)[C@@H](C(=O)O)n1cnnn1`, the relative growth is inactive: 0.996.

As to `Cc1cc(N)c2ccccc2[n+]1CCCCCCCCCC[n+]1c(C)cc(N)c2ccccc21.[Cl-].[Cl-]`, the relative growth was inactive: 0.627.

Turning to `N#Cc1cn(C2CCCCC2)c(=O)[nH]c1=O`, the relative growth was inactive: 1.03.

As for `COc1cccc(S(=O)(=O)Nc2ccc3c(c2)OC[C@H](C)N(C(=O)Cc2cccnc2)C[C@H](C)[C@@H](OC)CN(C)C3=O)c1`, the relative growth was inactive: 0.996.

Consider `C[C@H](CO)N1C[C@H](C)[C@H](CN(C)Cc2ccc(Oc3ccccc3)cc2)Oc2ccc(NC(=O)C3CCCCC3)cc2CC1=O`, for which the relative growth was inactive: 1.01.

For `COc1ccc(CN(C)C[C@@H]2Oc3c(NC(=O)C4CCOCC4)cccc3C(=O)N([C@H](C)CO)C[C@H]2C)cc1`, the relative growth was inactive: 0.99.

Regarding `C[C@@H]1CN([C@H](C)CO)C(=O)Cc2cc(NS(C)(=O)=O)ccc2O[C@H]1CN(C)C(=O)Nc1ccc2c(c1)OCO2`, the relative growth is inactive: 0.994.

As for `Br.CN(C)CCCC1(c2ccc(F)cc2)OCc2cc(C#N)ccc21` (centres undefined), the relative growth is inactive: 0.984.

In the case of `C[C@@H]1CN([C@@H](C)CO)C(=O)Cc2cc(N(C)C)ccc2O[C@H]1CN(C)S(=O)(=O)c1cn(C)cn1`, the relative growth was inactive: 0.994.

Turning to `C[C@@H]1CN([C@H](C)CO)C(=O)Cc2cc(NC(=O)Cn3cnnn3)ccc2O[C@@H]1CN(C)S(=O)(=O)c1ccc(Cl)cc1`, the relative growth is inactive: 1.01.

As to `C[C@@H]1CCCCO[C@@H](CN(C)C(=O)C2CCCCC2)[C@H](C)CN([C@H](C)CO)C(=O)c2cc(NC(=O)CCC(F)(F)F)ccc2O1`, the relative growth is inactive: 0.989.

For the compound `C[C@H]1CCCCO[C@H](CN(C)CC2CCCCC2)[C@@H](C)CN([C@@H](C)CO)C(=O)c2cc(NC(=O)NC3CCCCC3)ccc2O1`, the relative growth was inactive: 1.

For `C[C@H]1CN([C@@H](C)CO)S(=O)(=O)c2ccc(-c3ccc(F)cc3)cc2O[C@H]1CN(C)C(=O)C1CCOCC1`, the relative growth is inactive: 1.

On to `S=c1[nH]nc(C2CCCCC2)[nH]1`, for which the relative growth was inactive: 0.902.

For `C[C@H]1CN([C@@H](C)CO)C(=O)c2cc(NS(=O)(=O)c3cccs3)ccc2O[C@@H]1CN(C)Cc1ccc(Oc2ccccc2)cc1`, the relative growth is inactive: 0.979.

`COc1ccc(CN(C)C[C@@H]2OCCCC[C@H](C)Oc3ccc(NC(=O)Nc4ccc5c(c4)OCO5)cc3C(=O)N([C@@H](C)CO)C[C@@H]2C)cc1`: the relative growth was inactive: 0.982.

`NC(=O)C1CCN(C(=O)c2ccco2)CC1`: the relative growth was inactive: 0.995.

Take `C[C@@H]1CCCCO[C@@H](CN(C)Cc2ccc(Cl)c(Cl)c2)[C@@H](C)CN([C@H](C)CO)C(=O)c2cc(NC(=O)Nc3ccc4c(c3)OCO4)ccc2O1`: the relative growth is inactive: 1.

On to `C[C@@H]1CN([C@H](C)CO)C(=O)c2cccc(NC(=O)Nc3ccc(C(F)(F)F)cc3)c2O[C@@H]1CN(C)C(=O)Nc1ccc(C(F)(F)F)cc1`, for which the relative growth is inactive: 0.974.

As to `COc1cccc(NC(=O)N2C[C@@H](O)COC[C@@H]3O[C@@H](CC(=O)NCCCN4CCOCC4)CC[C@H]32)c1`, the relative growth was inactive: 0.883.

`C[C@H]1CN([C@@H](C)CO)C(=O)Cc2cc(NS(=O)(=O)c3ccc(Cl)cc3)ccc2O[C@H]1CN(C)S(=O)(=O)c1cn(C)cn1`: the relative growth was inactive: 0.982.

As for `Cc1noc(C)c1NC(=O)N(C)C[C@H]1Oc2ccc(NS(=O)(=O)c3c(C)noc3C)cc2CC(=O)N([C@H](C)CO)C[C@H]1C`, the relative growth was inactive: 1.
